The source of these data is the supplement of paper PMC10338343.

± gives the standard deviation. The entries are a selection whose mix differs from that of the whole data set. A value given as a limit tells only on which side of the number the result lay.
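Note: 1 nM active piRISC with 0.1 nM target library at 33 °C single turnover.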

The subject of the assay is MIWI (PIWIL1) piRISC loaded with L1MC piRNA (30 nt). The experiment in a line: pre-steady-state target cleavage rate (min^-1); MIWI and MILI are mouse PIWI proteins and EfPiwi is from a freshwater sponge; tags in brackets are library labels; higher = faster piRNA-guided slicing of the target. The conditions noted are these: guide: L1MC piRNA 5'p-UAACUAAAUACUAUGCAAGCUGUAGGUCCU; auxiliary factor: 500 nM mouse GTSF1. Summed up: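 The pre-steady-state cleavage rate was calculated from a burst-and-steady-state fit. Data came from Cleave-'n-Seq, in which […] transcribed, DNA-blocked target RNA library was mixed with 1 nM active affinity-purified piRISC carrying one synthetic guide, with or without 500 nM GTSF1 partner protein, in HEPES–potassium acetate buffer at 33 °C for 0–8 or 0–960 min. Uncleaved targets were sequenced and normalised to depth and to weakly complementary targets, three trials were pooled, and k3 was capped at 0.0001 min^-1.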
As for UCGACCUACAGGUUGCAUAGUAUUUUCAAA, the “pre-steady-state target cleavage rate” value is 0.134 ± 0.021.

With UCCUGGAUCAGCUUGCAUUGUAUUUACAAA, the “pre-steady-state target cleavage rate” value came to 0.0335 ± 0.011.

AGGACCUACAGCUUGGUAAGUAUUUAGUUA: the “pre-steady-state target cleavage rate” value is 0.094 ± 0.016.

Consider UCCACCUACAGCUACCAUAGUAUUUAGUAA, for which the “pre-steady-state target cleavage rate” value stood at 0.211 ± 0.034.

With UCCUGGAUGUGCUUGCUUAGUAUUUAGAAA, the “pre-steady-state target cleavage rate” value was 0.0155 ± 0.0058.

For UCCUGGUACACCAUGCAUAGUAUUUAGUUA, the “pre-steady-state target cleavage rate” value came to 0.235 ± 0.034.

For the sequence UCGACCUACACGAUGCAUAGUAUUUACAAA, the “pre-steady-state target cleavage rate” value is 0.147 ± 0.021.

Take UCCUGCUACAGCUUGCAUAGUAUUAAGAAA: the “pre-steady-state target cleavage rate” value is 0.414 ± 0.085.

For UCCUCCUAGUCCUUGCAUAGUAUUUUCAAA, the “pre-steady-state target cleavage rate” value was determined as 0.0767 ± 0.02.

UCCUCCUACAGCUUGCAUAGUAUAAUCAAA: the “pre-steady-state target cleavage rate” value stood at 0.329 ± 0.048.

For the sequence UCCUGGAUGUCGAACCAUUAGUAUUUAGUUA, the “pre-steady-state target cleavage rate” value was less than 0.0001.

Consider UCCUCCUACAGCUUGCAAUAGUAUUUAGUUA, for which the “pre-steady-state target cleavage rate” value worked out at 0.0962 ± 0.021.

Consider UCCUGGAUCAGCUUCCAUAGUAUUUAGUAA, for which the “pre-steady-state target cleavage rate” value came out at 0.0346 ± 0.0086.

Consider UCCUCCUACAGCAAGCAUAGUAUUUAGAAA, for which the “pre-steady-state target cleavage rate” value was determined as 0.391 ± 0.062.

For UCCUGGUACAGCUUGGUUAGUAUUUAGAAA, the “pre-steady-state target cleavage rate” value came out at 0.169 ± 0.045.

Take UCCUGGAACUGCUUCCAUAGUAUUUAGUUA: the “pre-steady-state target cleavage rate” value is 0.035 ± 0.008.

UCCACCUACAGCUUGCAUAGUAAAUUCAAA: the “pre-steady-state target cleavage rate” value turned out to be 0.228 ± 0.062.

On to UCCACCUACAGCUUGCAAUGUAUUUACAAA, for which the “pre-steady-state target cleavage rate” value was determined as 0.0629 ± 0.015.

For AGGACCUACAGCUUGCAUAGUAAUUUCAAA, the “pre-steady-state target cleavage rate” value came out at 0.373 ± 0.073.

Consider UCCUGGAUCAGCUUGCAUAGAUUUUAGUAA, for which the “pre-steady-state target cleavage rate” value was determined as 0.0156 ± 0.0066.

Consider UCCACCUACAGCUUGCAUAGUUUUUACAAA, for which the “pre-steady-state target cleavage rate” value is 0.193 ± 0.032.

Regarding UCGACCUACAGCUUCCAUACUAUUUAGUUA, the “pre-steady-state target cleavage rate” value came out at 0.0259 ± 0.01.

For UCCUGCUACAGCUUGCAUAGUUUUUACAAA, the “pre-steady-state target cleavage rate” value was found to be 0.241 ± 0.05.

As to UCCUGGAUGUCCAUGCAUAGUAUUUUGUUA, the “pre-steady-state target cleavage rate” value was determined as 0.00484 ± 0.0039.

Consider UCCUGCUACAGCUUGCAUAGUUAAUUCAAA, for which the “pre-steady-state target cleavage rate” value was 0.0141 ± 0.0063.

For AGGACCUACAGCUAGCAUAGUAUUUUCAAA, the “pre-steady-state target cleavage rate” value was 0.42 ± 0.052.

With UCCUGGAUGUCCAUGCAUAGUAUUUAGUAA, the “pre-steady-state target cleavage rate” value was found to be 0.0109 ± 0.0052.

In the case of UCCUGGAUGUCGAACCAUAGUAUUUAGUGUA, the “pre-steady-state target cleavage rate” value is less than 0.0001.

Take UCCUGGAUGUGCAUGCAUUGUAUUUAGUUA: the “pre-steady-state target cleavage rate” value amounted to 0.00495 ± 0.0033.

In the case of UCCUGGAUGUGGAAGCAUAGUAUUUAGUUA, the “pre-steady-state target cleavage rate” value amounted to 0.00647 ± 0.0028.

In the case of UGGACCUACUCGUUGCAUAGUAUUUAGAAA, the “pre-steady-state target cleavage rate” value was determined as 0.0338 ± 0.0054.

Regarding UGGACCUACAGCUUGCAUUCAAUUUAGUUA, the “pre-steady-state target cleavage rate” value came to 0.0044 ± 0.0032.

For the sequence AGGACCUACAGCAAGCAUAGUAUUUACAAA, the “pre-steady-state target cleavage rate” value is 0.555 ± 0.086.

For the sequence UCCUGGAUGAGCUUGAUAGUAUUUAGUUA, the “pre-steady-state target cleavage rate” value is 0.02 ± 0.0052.

For UCGACCUACAGCUUCGAUAGUAUUUAGAAA, the “pre-steady-state target cleavage rate” value is 0.0817 ± 0.02.

On to UCCUGGAUGUCGUUGCAUAGUAUUUGGUUA, for which the “pre-steady-state target cleavage rate” value was determined as 0.0113 ± 0.0039.
